# Results from article PMC6919601, “Identification of Plasmodium dipeptidyl aminopeptidase allosteric inhibitors by high throughput screening” (PLoS ONE, 2019).
# The whole screen tested about 110,000 compounds, of which about 230 (0.21%) showed an effect of 50% or more. This is one part of the list.
# Target: DPAP1 (Plasmodium falciparum, UniProt Q8IIJ9)
# Test: primary screen, percent inhibition; read by cleavage of a fluorogenic dipeptide substrate; higher = more effect of the substance
# Design: species or system P. falciparum D10 trophozoite lysates; single well
# 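Further: 30 min substrate incubation versus DMSO and 10 µM JCP410 controls.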
# DPAP1, sequence (Q8IIJ9 whole entry, looked up): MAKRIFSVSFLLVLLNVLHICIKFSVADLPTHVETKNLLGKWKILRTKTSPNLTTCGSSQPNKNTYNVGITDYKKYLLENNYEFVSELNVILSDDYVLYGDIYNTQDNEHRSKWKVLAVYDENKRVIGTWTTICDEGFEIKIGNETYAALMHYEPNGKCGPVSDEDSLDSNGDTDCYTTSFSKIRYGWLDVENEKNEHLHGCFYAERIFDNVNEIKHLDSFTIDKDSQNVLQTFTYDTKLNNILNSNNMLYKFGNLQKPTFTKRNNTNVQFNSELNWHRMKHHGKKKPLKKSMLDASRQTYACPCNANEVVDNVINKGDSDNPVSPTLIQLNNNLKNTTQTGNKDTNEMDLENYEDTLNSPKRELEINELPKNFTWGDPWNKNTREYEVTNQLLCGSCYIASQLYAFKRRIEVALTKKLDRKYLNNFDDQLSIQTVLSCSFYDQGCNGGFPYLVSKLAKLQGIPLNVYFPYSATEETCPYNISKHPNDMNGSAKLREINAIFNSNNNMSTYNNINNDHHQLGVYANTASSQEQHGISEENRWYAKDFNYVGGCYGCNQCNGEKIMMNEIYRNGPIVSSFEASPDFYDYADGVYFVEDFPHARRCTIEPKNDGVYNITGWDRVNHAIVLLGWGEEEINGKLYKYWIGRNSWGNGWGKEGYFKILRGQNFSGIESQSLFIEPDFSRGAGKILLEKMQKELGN
row,Structure (SMILES),% Inhibition @ 10 uM [%]
1,CCOC(=O)N1CCN(C(=O)CSc2nnc(-c3ccc(OC)cc3)o2)CC1,2.97
2,Cn1c(C(=O)O)c(CC(=O)Nc2cnc3ccccc3c2)c2ccccc21,2.84
3,COC(=O)c1cc(S(=O)(=O)NCc2cccs2)c[nH]1,4.92
4,COc1ccc(C2C3=C(O)CCCC3=NC(C)=C2C(=O)Nc2ccc(Br)cn2)cc1 (centres unmarked),-0.522
5,Cc1ccccc1OCCOCCN1CCN(C)CC1,-5.54
6,N#CCCN(C1CCCCC1)S(=O)(=O)c1ccc(Cl)cc1,-4.96
7,Cc1scc(CN2CCN(Cc3ccccc3)CC2)c1C,6.4
8,CC(C)CN1C(=O)c2ccccc2C(C(=O)NC(C)C)C1c1cccs1 (centres unmarked),1.97
9,Cn1cc(NC(=O)NCCc2ccc(Cl)cc2)c2ccccc2c1=O,3.45
10,CC(C)CN1C(=O)c2ccc(C(=O)NC3CCCCC3)cc2C1=O,-8.92
11,CCOc1cc(C2C3=C(CC(C)(C)CC3=O)OC3=C2C(=O)CC(C)(C)C3)cc(Br)c1O,-6.65
12,CC(C)CC(C(=O)NCC#N)c1cccc(-c2ccc(-c3csc(N(C)C)n3)cc2)c1 (centres unmarked),-4.72
13,N=c1n(CC(N)=O)c2ccccc2n1Cc1ccc(Cl)c(Cl)c1,-5.3
14,Cc1cc(NC(=O)CN(c2cccc(C)c2C)S(C)(=O)=O)ccc1Br,-0.48
15,CNC(=O)c1ccc(C(=O)N(C(C)C)C(C)C)cc1,3.74
16,O=C(Nc1cccc(Cl)c1)c1cccc(NC(=O)c2cccs2)c1,-4.43
17,CCN1CCCC1CNS(=O)(=O)c1cc(-c2onc(C)c2C)ccc1OC (centres unmarked),-1.95
18,O=C(Nc1sc2c(c1C(=O)NCCc1ccccc1)CCC2)c1cc(=O)c2cc(Cl)ccc2o1,-3.24
19,CCOc1ccc(C(=O)Nc2ccc(F)c(Cl)c2)cc1,2.65
20,O=C(NCCc1ccncc1)Nc1ccc(Cl)c(Cl)c1,-12.7
21,CC1SC2(NC1=O)C1CC3CC(C1)CC2C3 (centres unmarked),-1.08
22,CCCCC1CCC(C(=O)N(Cc2sccc2C)C2CCS(=O)(=O)C2)CC1 (centres unmarked),3.77
23,Cc1onc(-c2ccccc2Cl)c1C(=O)N1C(C)CCCC1C (centres unmarked),-6.36
24,O=C1C(c2ccc(Cl)cc2)N(Cc2ccc3c(c2)OCO3)C(=O)CN1C1CCCCC1 (centres unmarked),2.9
25,CC(=O)Nc1ccc(NC(=O)c2oc3ccc(C)cc3c2C)cc1,2.43
26,CCOc1ccccc1C1C2=C(O)CCCC2=NC(C)=C1C(=O)Nc1ccccc1C (centres unmarked),2.51

row,Structure (SMILES),% Inhibition @ 10 uM [%]
1,CC(=O)c1ccc(N2CN=c3s/c(=C\c4ccco4)c(=O)n3C2)cc1,-3.63
2,Cc1c(NC(=O)N2CCC3(CC2)OCCO3)sc2nc3n(c(=O)c12)CCC(C)CC3 (centres unmarked),6.35
3,Cc1cc2ncn(C(=O)Cc3ccc(F)cc3)c2cc1C,-1.33
4,CN(C)c1ccc(NC(=O)C2C3C=CC(C3)C2C(=O)O)cc1 (centres unmarked),-8.46
5,O=C(NCc1ccccc1)C(Cc1ccccc1)NS(=O)(=O)c1ccc(Br)cc1 (centres unmarked),-0.406
6,O=C(N/C(=C\c1ccco1)C(=O)N1CCOCC1)c1cccc(Br)c1,-2.88
7,O=C(O)c1ccc(-c2ccccc2)s1,2.84
8,CC(C)CCn1c(CN2CCCCC2)nc2c1c(=O)n(C)c(=O)n2C,1.79
9,Cc1nc(SCC(=O)Nc2ccccc2)c(C#N)c(C)c1C,0.76
10,Cc1ccc(OCCn2c(Br)nc3c2c(=O)n(C)c(=O)n3C)cc1,6.07
11,CCC(Cc1ccccc1)NC(=O)c1ccccc1 (centres unmarked),4.73
12,O=C(Nc1cc(Cl)ccc1Cl)C12CC3CC(CC(C3)C1)C2,1.63
13,COc1ccccc1/C=C/c1nc(C#N)c(N(C)Cc2ccccc2)o1,-2.57
14,COC(=O)c1ccc(COc2ccc(-c3nnn(CC(N)=O)n3)cc2)cc1,-4.35
15,Cc1cc(C)c2c(n1)sc1c(=O)n(Cc3ccccc3Cl)nnc12,2.09
16,CC1(C(Cl)Cl)C=CC(=O)C=C1,2.45
17,CNC(=O)c1cc(C)c(-c2ccccc2)s1,8.71
18,CCN1C(=O)C2(C(C#N)=C(N)OC3=C2C(=O)CCC3)c2ccccc21 (centres unmarked),-2.68
19,COc1ccc(OC)c(C2NC(=O)NC(C)=C2C(=O)OCc2ccccc2)c1 (centres unmarked),0.736
20,Oc1[nH]c2ccccc2c1/C=N/c1nccs1,0.205
21,Cc1cccc(C(=O)NC(C(=O)O)C23CC4CC(CC(C4)C2)C3)c1 (centres unmarked),-0.0619
22,Cc1ccc(C2=NS(=O)(=O)N(C)C(C(=O)NCc3ccc(F)cc3)=C2)cc1,-4.68
23,COc1ccc(C(=O)Nc2cccc(C)c2C)c(OC)c1,-4.15
24,c1ccc(-c2csc3nnc(SCc4ccc5c(c4)OCO5)n23)cc1,0.778
25,CCC(C)NC(=O)CN(Cc1ccccc1)S(=O)(=O)c1ccc(Cl)cc1 (centres unmarked),-9.18
26,CC(C)CCOc1ccc(CSCCCN=C(N)N)cc1,-1.91

row,Structure (SMILES),% Inhibition @ 10 uM [%]
1,COc1ccc(N(CC(=O)N2CCCC2)S(=O)(=O)c2ccccc2)cc1Cl,-1.68
2,Cc1cc2c(c(S)n1)C(=O)O/C2=C\c1c[nH]nc1-c1cccs1,43.6
3,CC(C)NS(=O)(=O)c1ccc(OCC(=O)Nc2ccc(Cl)c(Cl)c2)cc1,3.35
4,Cc1ccc(C(C)C)c(OCCCn2c(CO)nc3ccccc32)c1,-4.07
5,Cc1nc(CC(=O)Nc2sc3c(c2C(N)=O)CCC(C)C3)cs1 (centres unmarked),8.49
6,Cc1ccc(C(C)(C)C)c(OCC(=O)NCc2ccco2)c1,-1.49
7,O=C(Cn1cnc2ccccc2c1=O)Nc1ccc2ccccc2c1,0.674
8,Cc1cc(-c2[nH]nc3c2C(c2ccccc2Cl)C(C#N)=C(N)O3)c(C)s1 (centres unmarked),-0.99
9,COCCCNC(=O)c1c(NC(=O)c2nc(SC)ncc2Cl)sc2c1CCCC2,-2.85
10,CC(C)(C)NC(=O)C1CCC(C/N=c2/c(N3CCCCC3)c(O)c2=O)CC1 (centres unmarked),1.22
11,CC(C)OCCCn1c(=O)c2ccccc2n2c(CCC(=O)NC(C)c3ccccc3)nnc12 (centres unmarked),-1.44
12,COc1ccc(NC2=C(Cl)C(=O)N(c3ccccc3C)C2=O)c(OC)c1,1.08
13,Fc1ccc(-c2nsc3c(N4CCCC4)ncnc23)cc1,0.758
14,CCCN(C(=O)c1cccc(OC)c1)c1nc(-c2ccccc2)cs1,-2.7
15,Nc1ccc2oc(-c3ccc4ccccc4c3)nc2c1,4.57
16,NCCc1n[nH]c(Cc2ccccc2)n1,-2.72
17,CCOc1ccc(CNC(=O)c2cc3cc4cc(OC)ccc4nc3s2)cc1,2.28
18,O=C(COc1ccc(S(=O)(=O)N2CCCC2)cc1)N1CCN(c2ccccc2)CC1,-1.61
19,COc1ccc(OCC(=O)N2CCN(c3ccccc3OC)CC2)cc1,1.67
20,CC1=C(C(=O)Nc2ccc(F)cc2)C(c2ccccn2)C2=C(O)CC(C)(C)CC2=N1 (centres unmarked),-4.48
21,COc1ccc(CN2C(=O)c3nccnc3C2=O)cc1,-6.67
22,CCn1cc2c(c1-c1ccccc1)c(=O)n(C)c(=O)n2C,-1.52
23,C/C(=N\[C@@H](CC1(C)CCCC1)C(=O)NCC#N)NS(=O)(=O)c1ccccc1,5.94
24,CCCNC(=O)c1ccc(-n2c(C)cc3c2CCC(C)C3)cc1 (centres unmarked),7.46
25,COc1ccc(CCNC(=O)CCS(=O)(=O)c2ccc3nc(C)sc3c2)cc1OC,-5.26
26,COc1cc(CCC(=O)Nc2cccnc2)cc(OC)c1OC,1.88

row,Structure (SMILES),% Inhibition @ 10 uM [%]
1,O=C(NC(=S)N1CCOCC1)c1cccs1,-5.62
2,O=P(O)(CNc1ccccc1O)c1ccccc1,-0.687
3,COc1ccc(NCc2ccncc2)cc1,-1.38
4,CCSc1n[nH]c2nc3nc4c(C)cccc4c-3nn12,7.26
5,Cc1cc(C)c(Cn2c3ccccc3c3cnn(CC(=O)NC4CC4)c(=O)c32)c(C)c1,-1.8
6,COc1cc(C(=O)N2CCC(C(=O)O)CC2)cc(OC)c1OC,1.52
7,O=S(=O)(c1cccc2nonc12)N1CCC2(CC1)OCCO2,-4
8,COc1ccc2sc3c(O)nc4ccccc4c3c2c1,1.88
9,Cc1sc(NC(=O)c2cccc(Br)c2)c(C(N)=O)c1C,3.69
10,CN(C)c1nc(N)nc(COC(=O)c2ccc(-n3nnc(Cc4ccccc4F)n3)cc2)n1,-4.04
11,COc1ccccc1/C=C/C1=NC(=C\c2cccc(F)c2)/C(=O)O1,17
12,O=C1c2cccc3cccc(c23)C(=O)N1CCC(=O)n1cnc2ccccc21,0.147
13,COc1ccc(Cl)cc1NC(=O)C1CCCN1S(=O)(=O)c1ccc(Cl)cc1 (centres unmarked),4.41
14,O=C(NCCCN1CCOCC1)c1cc(-c2ccncc2)nc2ccccc12,-2.26
15,Cc1cccc(NC(=O)c2sc3nc(C)cc(C)c3c2N)n1,-6.43
16,O=C(Nc1cc([N+](=O)[O-])ccc1Cl)c1ccc([N+](=O)[O-])o1,5.43
17,CC(C)CSc1nc(N)c2c3c(sc2n1)CCC3,81.4
18,COc1cc(OC)c(CN2CCN(Cc3ccccc3)CC2)cc1Br,-2.56
19,Cc1oc(-c2ccccc2Cl)nc1CSCC(=O)NCc1ccc2c(c1)OCO2,0.689
20,CC(=O)NCCOc1nc(N2CCOCC2)nc(N2CCOCC2)n1,0.401
21,COc1cccc(CNc2nc3c(-c4cccc(C(F)(F)F)c4)nnn3c3ccccc23)c1,-8.42
22,CC1=C(C(=O)Nc2cccnc2)C(c2cccc(O)c2)n2nc(SCc3ccccc3)nc2N1 (centres unmarked),-7.43
23,Cc1ccc(-c2cc(NC(=O)C(C)C)on2)cc1,-3.24
